Over roughly 81,000 sequences, “one-hybrid fitness for binding parS DNA” has its median near -0.17; the highest 2% begin near 0.51. The list shows a part of the results.
B1: Caulobacter ParB omega fusion; a variant is named by its letters at X, in order, B8GW30 (parent)
chain: MESVVVGEPGMSEGRRGLGRGLSALLGEVDAAPAQAPGEQLGGSREAPIEILQRNPDQPRRTFREEDLEDLSNSIREKGVLQPILVRPSPDTAGEYQIVAGERAWRAAQRAGLKTVPIMVRELDDLAVLEIGIIENVQRADLNVLEEALSYKVLMEKFERTQENIAQTIGKSXSHVANXMRLLXLPDEVQSYLVSGELTAXHARAIAAAADPVALAKQIIEGGLSVRETEALARKAPNLSAGKSKGGRPPRVKDTDTQALESDLSSVLGLDVSIDHRGSTGTLTITYATLEQLDDLCNRLTRGI

Variants of: B1
Experiment: one-hybrid fitness for binding parS DNA (scaled: cognate 1, non-cognate 0); higher = stronger binding
Conditions: with parS DNA site
Method in brief: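 Selection: bacterial one-hybrid in E. coli USO, HIS3 reporter with the site 19 bp from the promoter, 48 hours at 37°C on M9-minus-histidine plus 0.1 mM IPTG and 5 mM 3-AT. Libraries were Caulobacter ParB with four randomised specificity codons, sequenced on Illumina before and after selection. Fitness is the rescaled log change in variant-to-wild-type read ratio, anchored to the cognate and non-cognate sites.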

Variant	one-hybrid fitness for binding parS DNA
PADS	≤ 0.2
LSQT	≤ 0.2
NRCT	≤ 0.2
AANV	≤ 0.2
KCEF	≤ 0.2
VKTL	≤ 0.2
IVLP	≤ 0.2
PVAD	≤ 0.2
EMGR	≤ 0.2
MTQV	≤ 0.2
DPAQ	≤ 0.2
PAGA	≤ 0.2
LFGL	≤ 0.2
TRKA	≤ 0.2
KPKG	≤ 0.2
TLMA	≤ 0.2
YSMC	≤ 0.2
QTLV	≤ 0.2
MRSW	≤ 0.2
RNVC	0.599
QCWF	≤ 0.2
RPSD	≤ 0.2
TGRW	≤ 0.2
QGPN	≤ 0.2
HYSC	≤ 0.2

Variant	one-hybrid fitness for binding parS DNA
EACC	≤ 0.2
QSND	≤ 0.2
YHTS	≤ 0.2
RTFD	≤ 0.2
MHNG	≤ 0.2
TNNL	≤ 0.2
DLWK	≤ 0.2
QISS	≤ 0.2
HPHY	≤ 0.2
AEYT	≤ 0.2
ASMI	≤ 0.2
DSYM	≤ 0.2
CNTG	≤ 0.2
NDKM	≤ 0.2
AWIS	≤ 0.2
ELSF	≤ 0.2
GDNG	≤ 0.2
FVRF	≤ 0.2
QKSM	≤ 0.2
RNSN	0.385
WSYT	≤ 0.2
AWDV	≤ 0.2
SFCR	≤ 0.2
ALRG	≤ 0.2
ARKW	≤ 0.2

Variant	one-hybrid fitness for binding parS DNA
TMEC	≤ 0.2
STDW	≤ 0.2
PFLC	≤ 0.2
SYLT	≤ 0.2
TNRQ	≤ 0.2
SDAL	≤ 0.2
QPLA	≤ 0.2
YNKD	≤ 0.2
LQMT	≤ 0.2
CPTH	≤ 0.2
RINN	0.469
AQQN	≤ 0.2
LSPH	≤ 0.2
KNRC	≤ 0.2
PIIW	≤ 0.2
WVWR	≤ 0.2
RMKW	0.694
GADD	≤ 0.2
VTQP	≤ 0.2
PIHV	≤ 0.2
FLET	≤ 0.2
PLYE	≤ 0.2
VGDL	≤ 0.2
ANSL	≤ 0.2
TQDD	≤ 0.2

Variant	one-hybrid fitness for binding parS DNA
VRLK	≤ 0.2
TPRH	≤ 0.2
CPKP	≤ 0.2
QFHY	≤ 0.2
MMQR	≤ 0.2
WTMG	≤ 0.2
KLAT	≤ 0.2
TRKT	≤ 0.2
QIKL	≤ 0.2
RQTW	0.229
RKYF	≤ 0.2
ISFT	≤ 0.2
CTGR	≤ 0.2
PAAS	≤ 0.2
QSCH	≤ 0.2
PHGC	≤ 0.2
TPTE	≤ 0.2
YPER	≤ 0.2
PSDE	≤ 0.2
PVCM	≤ 0.2
PSYM	≤ 0.2
DITS	≤ 0.2
SFHW	≤ 0.2
GFRY	≤ 0.2
PCFE	≤ 0.2

Variant	one-hybrid fitness for binding parS DNA
DHVR	≤ 0.2
HNRV	≤ 0.2
HVHR	≤ 0.2
DPMY	≤ 0.2
RTAF	0.256
TNGC	≤ 0.2
PVEA	≤ 0.2
CGGT	≤ 0.2
CIAC	≤ 0.2
MIVR	≤ 0.2
HIVA	≤ 0.2
YGAS	≤ 0.2
PTRK	≤ 0.2
RDPN	≤ 0.2
GFHC	≤ 0.2
EQYG	≤ 0.2
IKRS	≤ 0.2
HIMC	≤ 0.2
EKNL	≤ 0.2
CHGS	≤ 0.2
NITR	≤ 0.2
LNHS	≤ 0.2
RHSW	≤ 0.2
MHVR	≤ 0.2
ASNC	≤ 0.2

Variant	one-hybrid fitness for binding parS DNA
NMHW	≤ 0.2
VNRL	≤ 0.2
IYMV	≤ 0.2
TSLK	≤ 0.2
FLGN	≤ 0.2
ADDC	≤ 0.2
SMIT	≤ 0.2
QDFR	≤ 0.2
NAPS	≤ 0.2
NRDV	≤ 0.2
LKRT	≤ 0.2
TETL	≤ 0.2
TLER	≤ 0.2
RQMQ	≤ 0.2
SRMA	≤ 0.2
PDKR	≤ 0.2
CEKR	≤ 0.2
AMER	≤ 0.2
SNTT	≤ 0.2
HNYS	≤ 0.2
CIMG	≤ 0.2
LQRE	≤ 0.2
CMYG	≤ 0.2
VCTF	≤ 0.2
PIIG	≤ 0.2

Variant	one-hybrid fitness for binding parS DNA
PIIC	≤ 0.2
RKQS	0.793
DDNE	≤ 0.2
LQVL	≤ 0.2
PPIN	≤ 0.2
ITTS	≤ 0.2
HKHV	≤ 0.2
RTAM	0.311
RHTI	≤ 0.2
QCPD	≤ 0.2
SVPW	≤ 0.2
DTQA	≤ 0.2
ENDK	≤ 0.2
RTHS	0.944
AWIV	≤ 0.2
PTGW	≤ 0.2
TAST	≤ 0.2
WLCC	≤ 0.2
GPEV	≤ 0.2
APGA	≤ 0.2
VYHG	≤ 0.2
DKCG	≤ 0.2
IPQK	≤ 0.2
CMCG	≤ 0.2
MFQS	≤ 0.2

Variant	one-hybrid fitness for binding parS DNA
YMYS	≤ 0.2
VGVG	≤ 0.2
NNNN	≤ 0.2
HRWL	≤ 0.2
NLIS	≤ 0.2
QAGA	≤ 0.2
WAAW	≤ 0.2
PIVT	≤ 0.2
HAPM	≤ 0.2
TCIT	≤ 0.2
DQSP	≤ 0.2
YENR	≤ 0.2
MTMS	≤ 0.2
DGEN	≤ 0.2
MCAN	≤ 0.2
PANC	≤ 0.2
CNVW	≤ 0.2
NASR	≤ 0.2
KQET	≤ 0.2
HRSL	≤ 0.2

Reference: a collection of fitness landscapes (doi:10.1016/j.celrep.2020.107928)
